Laboratory results taken from the BET-seq Pho4 binding data (Le et al. 2018).
The other results are listed elsewhere or left out. The energies were worked out here from pooled read counts, against the library average; single values are noisy.

target: T1, Pho4 (S. cerevisiae) (UniProt P07270); assay: relative binding free energy (BET-seq); higher = weaker binding; conditions: reference: library average
T1 sequence: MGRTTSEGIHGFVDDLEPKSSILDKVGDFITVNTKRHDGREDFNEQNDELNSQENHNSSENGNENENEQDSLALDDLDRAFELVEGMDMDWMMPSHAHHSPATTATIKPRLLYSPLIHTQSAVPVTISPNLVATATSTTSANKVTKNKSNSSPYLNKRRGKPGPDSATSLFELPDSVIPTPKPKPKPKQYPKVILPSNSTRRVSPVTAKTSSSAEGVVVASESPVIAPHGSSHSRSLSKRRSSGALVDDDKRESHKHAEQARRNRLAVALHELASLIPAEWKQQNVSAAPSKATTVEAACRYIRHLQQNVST

Sequence	relative binding free energy [kcal/mol]
GGTATCACGTGGAGAA	0.28
TAGACCACGTGGGTTT	-0.05
GTGTGCACGTGAAGTT	0.29
TGGTGCACGTGCGCTG	-0.07
TATGTCACGTGGAAGA	0.13
GGTGTCACGTGAATTA	0.47
CGTTTCACGTGTGGAA	0.28
TGAAGCACGTGTTAAT	0.17
TTTAACACGTGTTGCG	0.02
ATAGTCACGTGCGTAG	0.1
ATGATCACGTGTGATG	0.31
AGTATCACGTGAGTCT	0.33
AGTTGCACGTGTAATA	0.09
CTCTTCACGTGGTGGT	0.22
TTTTTCACGTGACGGT	0.34
TTAAACACGTGTGGTT	-0.03
TAGATCACGTGCGTTG	-0.02
TGGGTCACGTGCCGGC	0.02
GGTATCACGTGTGATT	0.15
GATTGCACGTGTTCTT	0.01
TAAGTCACGTGCGTGA	0.02
TTAGGCACGTGTGGGC	-0.03
GGGCACACGTGGGAAA	0.14

Sequence	relative binding free energy [kcal/mol]
GGGTCCACGTGGTTAT	0.05
ATTTACACGTGAATTT	0.28
GGTTTCACGTGTTGTT	0.27
GCAGGCACGTGTAAAT	0.18
GTCCTCACGTGGTGGG	0.07
AAAGTCACGTGTATTG	0.08
TGTAGCACGTGGACAT	-0.09
GTGGGCACGTGTATGA	-0.01
ATAGTCACGTGTGAGA	0.2
ATAGCCACGTGGGTAA	-0.07
TTCCGCACGTGCTGGG	-0.03
GGGTTCACGTGTCTTG	0.38
TGGGCCACGTGTGGGC	0.03
CAGGTCACGTGGGGGA	-0.08
GCTGTCACGTGTTGTA	0.12
TTAAGCACGTGAATTA	0.26
TTAAGCACGTGTTAAT	-0.01
AGTTCCACGTGTGGCG	0.16
TTAATCACGTGATCTG	0.2
TATTGCACGTGTTGCG	0
ATTGTCACGTGGTTGT	0.1
CTAGTCACGTGTGGAG	0.23
GCCTGCACGTGTTGGT	0.15

Sequence	relative binding free energy [kcal/mol]
GGATACACGTGAGGTT	0.37
TAGTGCACGTGAGTAA	0.13
GCGTGCACGTGAGGTG	0.22
TCGGTCACGTGAAGTA	0.35
AGGTTCACGTGGGGGC	0.14
TGTCACACGTGCGGGC	0.07
GATCGCACGTGTTAGG	0.09
GCGTGCACGTGTTGGC	0.11
GATTGCACGTGTTTAA	0
TCGTACACGTGTGTTA	0.04
AGGGGCACGTGACTGG	-0.05
TTTTACACGTGGGAGA	0.08
TGCGACACGTGGTTAT	0.03
GCTGTCACGTGGTTTG	0.11
CGTGCCACGTGACGGG	0.07
AGGTTCACGTGAGTGC	0.32
ATTATCACGTGTATTC	0.06
GAATGCACGTGGTGGT	-0.03
GGTCACACGTGCTGTG	0.17
TTCAGCACGTGGGATG	-0.25
TGGGGCACGTGTATCG	-0.07
GAGGTCACGTGAATAG	0.29
GGCGGCACGTGGTATG	-0.09

Sequence	relative binding free energy [kcal/mol]
TAAGGCACGTGTGTGG	-0.07
TCTGTCACGTGTGATA	0.15
ATTAGCACGTGTTAGG	0
CTGTTCACGTGAGATG	0.41
GTGCTCACGTGTATGT	0.27
GTATCCACGTGGTGGA	-0.06
GCTTGCACGTGTGTGC	-0.04
TCACGCACGTGGGTGT	-0.34
GCGTTCACGTGGTTAT	0.42
TATTTCACGTGTAGCG	0.28
TTGATCACGTGAGGCG	0.31
TATAGCACGTGGGAGC	-0.13
TGGGTCACGTGGAAGG	0.15
CGGTGCACGTGGTTTT	0.12
ATTTGCACGTGACTTA	-0.04
AGTGGCACGTGTCAAT	-0.1
TAAAGCACGTGGTAAA	0.05
AATTTCACGTGAATTG	0.29
GTGCTCACGTGGAGGT	0.17
TAGTACACGTGGAGGA	0.12
TAGGTCACGTGGTATA	0.12
TTCTTCACGTGGCATT	0.24
TTGATCACGTGAAGCT	0.32

Sequence	relative binding free energy [kcal/mol]
AATGGCACGTGTGCAG	-0.12
GGGGTCACGTGATAGG	0.24
TGTGGCACGTGTCCGT	-0.06
TTATTCACGTGGTGCC	0.27
GGCGGCACGTGATGGG	0.03
AGGGTCACGTGGTATC	0.11
AGAGGCACGTGGTGTC	-0.11
TGAGGCACGTGCTATA	-0.16
AGGTACACGTGCAGTT	0.06
GGTATCACGTGTGAGT	0.32
GAAAGCACGTGTGCGT	0.06
TTCTACACGTGGTTGT	0.12
GGGGTCACGTGATGAT	0.21
CGGTGCACGTGGGCTA	-0.07
TGGGCCACGTGAGTTT	0.23
TTTATCACGTGCGCGG	-0.04
TATTGCACGTGATATT	0.2
GTGCGCACGTGGTTAT	-0.09
TTGTACACGTGGAGTG	0.08
CGGAACACGTGTTGTG	-0.05
TTGGACACGTGGTTTG	0.05
TGAGTCACGTGAAATG	0.25
TTCAACACGTGAGTGT	0.2
